Laboratory results published in patent US20180221306A1, “PHARMACEUTICAL COMPOSITIONS OF 5-HYDROXY-2-METHYLNAPHTHALENE-1,4-DIONE” (PellFiCure Pharmaceuticals, Inc., priority 2016, published 2018).

How the values were obtained:
[1] = Procedure: Forced degradation studies were performed to determine the stability of Compound I in various aqueous formulations. Compound I formulations were prepared at approximately 5 mg/g (˜4.6 mg/mL assuming a density of 0.92 g/mL) in various aqueous media, as listed in Tables 5 and 6. The aqueous formulations were placed in stability chambers and subjected to conditions of 25° C./60% relative humidity (RH) and 40° C./75% relative humidity (RH). Samples were pulled from the formulations at 3 and 10 days. At each time point, samples were pulled from the stability chambers, diluted 20× to the nominal concentration using positive displacement pipettes and 50/50 ethanol/hexane as the diluent, and analyzed via HPLC for purity. Within the physiological pH range (around pH 7), less than 10% of initial Compound I remained in the solution after 1 week.
[2] = remark: listed apart in the source
Procedure: Forced degradation studies were performed to determine the stability of Compound I in various formulations. Compound I formulations were prepared at approximately 5 mg/g (˜4.6 mg/mL assuming a density of 0.92 g/mL) in various solvents, as listed in Tables 7 thorough 10. The formulations were placed in stability chambers and subjected to conditions of 25° C./60% relative humidity (RH) and 40° C./75% relative humidity (RH). Samples were pulled from the formulations at 3 and 10 days. At each time point, samples were pulled from the stability chambers, diluted 20× to the nominal concentration using positive displacement pipettes and 50/50 ethanol/hexane as the diluent, and analyzed via HPLC for purity. Stability was very good in most organic solvents but not in Tween-20 or Tween-80 surfactant formulations in which 50% or more Compound I was lost. The formulations of Compound I in PEG were 50% stable at 40° C./75%, whereas its stability in Carrier A was excellent.

Which results are given for CC1=CC(=O)c2c(O)cccc2C1=O [Compound I, 5-hydroxy-2-methylnaphthalene-1,4-dione]?
Stability in aqueous conditions [1]: stable in aqueous acid, but not in basic or neutral aqueous conditions; Degradation in the Carrier A formulations [2]: no significant degradation; Stability in Carrier A [2]: excellent; Stability in most organic solvents [2]: very good
